Assay results as given in PubChem BioAssay AID1963576 (National Center for Advancing Translational Sciences (NCATS), 2024).
About 60 (0.1%) of roughly 46,000 compounds were called active. Not shown: some 3% with an inconclusive outcome. The call rests on the fitted dose curve; in most records, active means well fitted inhibition curve with a large enough effect; inconclusive means small, poorly fitted or top-dose-only effect; inactive means no such curve, though single readings can be large or run the other way. The list shows a part of the results.

Test: Primary qHTS assay for Inhibitors of ovarian cancer metastasis using an organotypic tumor microenvironment (TME) model. Further: nearly all actives have a fitted effect of over 65% in size.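 On activity change, negative = inhibition: plate controls were DMSO wells for no effect and tomatine positive control wells for full effect.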
Conditions: SKOV3ip1-GFP adhesion/invasion on 3D omental model, fluorescence; series mostly up to 45.8 µM; activity change, negative = inhibition: at the top concentration
Outline: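 A 3D layer of primary human omental fibroblasts, mesothelial cells, fibronectin and collagen I, grown 48 hr, received SKOV3ip1-GFP cells in serum-free medium plus compounds at 0.36-46 umol/L. After 2 hr RT and 16 hr 37 C, fixed adherent GFP cells were counted; normalized to DMSO and tomatine.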

| Structure (SMILES) | activity change, negative = inhibition | outcome |
| --- | --- | --- |
| COc1ccc(NC(=O)C2=CC(c3ccc4c(c3)OCO4)=NS(=O)(=O)N2C)cc1 | inactive: -3.75% |  |
| CCC(C)(C)NC(=O)C1CCN(S(=O)(=O)c2c(C)noc2/C=C/c2ccc(C)cc2)CC1 |  | inactive |
| COc1ccc(C2c3c(oc4ccc(C)cc4c3=O)C(=O)N2CCCN2CCOCC2)cc1OC (configuration not stated) | inactive: -5.74% |  |
| CCOC(=O)C1CCCN(S(=O)(=O)c2cc3c4c(c2)CC(=O)N4CCC3)C1 (configuration not stated) | inactive: 1.34% |  |
| COc1cccc(CNC(=O)c2oc3c(c2C)-c2nn(Cc4cccc(Cl)c4)cc2CC3)c1 | inactive: -1.47% |  |
| COc1ccc(S(=O)(=O)NCC(c2ccc(N(C)C)cc2)N2CCCC2)cc1 (configuration not stated) | inactive: 3.93% |  |
| COc1ccc(-c2noc(CC(=O)Nc3ccc(Br)cc3C)n2)cc1 |  | inactive |
| CCOC(=O)c1c(NC(=O)COc2c(C)cc(Cl)cc2Cl)sc2c1CCCC2 |  | inactive |
| Cc1ccc(-n2c(=O)c3c4c(sc3n(Cc3ccccc3C)c2=O)CCC4)cc1C | inactive: -11.2% |  |
| Cc1ccc(NC(=O)Nc2nnc(N(C)C3CCCCC3)s2)c(Cl)c1 | inactive: -1.72% |  |
| Cc1cc(C)c(/C=C/c2onc(C)c2S(=O)(=O)N2CCC(C(=O)N(C)Cc3ccccc3)CC2)c(C)c1 | inactive: -3.96% |  |
| Clc1cccc(-n2cc(-c3ccccc3)c3c(N4CCCCC4)ncnc32)c1 | inactive: 8.35% |  |
| Cc1ccccc1C(=O)Nc1nc2nc(-c3ccccc3)cc(=O)n2[nH]1 | inactive: 5.52% |  |
| O=C(Nc1ccc2c(c1)OCO2)c1cc(-c2ccc(Br)cc2)on1 | inactive: 2.75% |  |
| CCN1C(C(=O)c2ccccc2)=C(OC(=O)c2ccc(OC)cc2)c2ccccc2S1(=O)=O | inactive: 3.71% |  |
| CCCCCCCCCCCCCCCCCCCCCCO | inactive: -9.32% |  |
| NCCc1cnc[nH]1 | inactive: -23.8% |  |
| CCc1cccc(C)c1NC(=O)Cn1cc2c(n1)CCCC2 | inactive: -0.908% |  |
| Cn1c(=O)c2c(-c3ccc(Br)cc3)n(CCc3ccccc3)cc2n(C)c1=O | inactive: 43.4% |  |
| NS(=O)(=O)c1ccc(NC2=CC(=O)c3ccccc3C2=O)cc1 | inactive: -12% |  |
| CCN(Cc1ccccc1)C(=O)CCc1c(C)nc2c(c(C)nn2-c2ccc(C)c(C)c2)c1C | inactive: -1.32% |  |
| Cc1ccc(NC(=O)c2oc3ccc(S(=O)(=O)N4CCCCC4)cc3c2C)cc1Cl | inactive: -11.1% |  |
| COc1ccccc1CNC(=O)CCCn1c(=O)c2ccccc2n(Cc2ccc(C)cc2)c1=O |  | inactive |

| Structure (SMILES) | activity change, negative = inhibition | outcome |
| --- | --- | --- |
| COc1ccc(C2CC(=O)N(CC(=O)Nc3cccc(C)c3C)c3ccccc3S2)cc1OC (configuration not stated) | inactive: 4.8% |  |
| Cc1ccc(C(=O)N2CCC(C(N)=O)CC2)cc1NC(=O)c1nsc2ccccc12 | inactive: -7% |  |
| COc1ccc(CN2CCCN(CC(=O)Nc3ccc4c(c3)OCCO4)S2(=O)=O)cc1 | inactive: -1.32% |  |
| Cc1nn(C)c2c1c(C(F)(F)F)cc(=O)n2CC(=O)N1CCC(C)CC1 | inactive: 1.4% |  |
| Cc1ccc(CSc2nc3cccnc3n2Cc2ccc(C(=O)NCCc3cccs3)cc2)cc1 | inactive: -26.1% |  |
| CC1CCN(S(=O)(=O)c2cc(C(=O)N3CCN(c4ccccc4F)CC3)n(C)c2)CC1 | inactive: 28.2% |  |
| Cc1ccc(-c2noc(-c3nnn(CC(=O)Nc4cc(Cl)ccc4C)c3N)n2)cc1 | inactive: 2.39% |  |
| Cc1ccc(Sc2ccc(N3CCCC(C(=O)Nc4ccc(F)cc4F)C3)nn2)cc1 (configuration not stated) |  | inactive |
| CCOC(=O)C1CCN(C(=O)c2nn(-c3ccc(OC)cc3)c(=O)c3c2c2ccccc2n3C)CC1 | inactive: 2.55% |  |
| COc1ccc(N(CC(=O)NCCc2ccc(Cl)cc2)S(=O)(=O)c2c(C)nn(C)c2C)cc1 | inactive: 46.5% |  |
| COc1ccc(CNC(=O)C(C)n2c(=O)cc(C)c3c(C)nn(-c4ccccc4)c32)cc1 (configuration not stated) | inactive: 2.8% |  |
| COc1ccc(NC(=O)c2oc3ccccc3c2NC(=O)Cc2cccs2)c(OC)c1 | inactive: -0.659% |  |
| COCCN1CCN(Cc2ccc(C(=O)NC(C)C)cc2)C(=O)C1=O |  | inactive |
| CCCCn1c(SCC(=O)NCc2ccc(C)cc2)nc2c(sc3ccccc32)c1=O | inactive: 10.3% |  |
| CCC1CN(C(=O)C2CCN(S(=O)(=O)c3c(C)noc3/C=C/c3ccccc3F)CC2)c2cc(C)ccc2O1 (configuration not stated) | inactive: 10.1% |  |
| CC(=O)c1cccc(NC(=O)c2nc(-c3ccccc3)n(-c3ccccc3C)n2)c1 | inactive: -1.07% |  |
| COc1ccc(C2c3cccn3CCN2S(=O)(=O)c2ccc([N+](=O)[O-])cc2)cc1 (configuration not stated) | inactive: -13.7% |  |
| CCN1CCN(Cc2c(O)ccc3cc(-c4ccc(OC)cc4)c(=O)oc23)CC1 | inactive: 6.69% |  |
| CCN1CCN(c2cc(C)c3cc(NC(=O)c4ccc(OC)c(OC)c4)ccc3n2)CC1 | inactive: -0.0681% |  |
| Cc1nc2c(c(C)nn2-c2ccccc2)c(C)c1CCC(=O)NCc1ccccc1 | inactive: -4.35% |  |
| NS(=O)(=O)c1cc2c(cc1Cl)NC(C(Cl)Cl)NS2(=O)=O (configuration not stated) | inactive: -1.61% |  |
| CCc1cccc(NC(=O)C2CCN(S(=O)(=O)c3cccc(-c4noc(C)n4)c3)CC2)c1 | inactive: -8.06% |  |
| Cc1cc(C)c(NC(=O)Cn2c(=O)n(Cc3ccc(C(=O)NCc4ccco4)cc3)c(=O)c3sccc32)c(C)c1 | inactive: -1.6% |  |

| Structure (SMILES) | activity change, negative = inhibition | outcome |
| --- | --- | --- |
| Cc1ccc(S(=O)(=O)c2nc(-c3cccc(Cl)c3)oc2NCc2ccccc2)cc1 |  | inactive |
| Cc1ccn2cc(-c3ccc(C)c(NS(=O)(=O)c4ccc(Cl)cc4)c3)nc2c1 | inactive: -3.87% |  |
| CN(C)CCNC(=O)c1ccc2c(c1)N(Cc1c(F)cccc1Cl)C(=O)c1ccccc1S2 | inactive: -11.3% |  |
| CCOC(=O)Cn1c(=O)oc2cc(S(=O)(=O)N3CCN(c4cc(C)ccc4C)CC3)ccc21 | inactive: 16.4% |  |
| COC(=O)c1cc2oc3ccccc3c2n1CC(=O)Nc1ccc(C)cc1C |  | inactive |
| CCC(=O)N1CCc2cc(S(=O)(=O)NC(C(=O)Nc3cc(OC)cc(OC)c3)C(C)C)ccc21 (configuration not stated) | inactive: 2.21% |  |
| CCc1ccc(C(=O)NC2=NC(c3ccccc3F)CC(=O)N2)cc1 (configuration not stated) | inactive: -22.8% |  |
| Cn1cnc(S(=O)(=O)N2CCCC(C(=O)Nc3ccc(OC(F)(F)F)cc3)C2)c1 (configuration not stated) | inactive: 8.24% |  |
| CCOC(=O)c1c(NC(=O)c2ccc(C)c(C)c2)sc2c1CCCCC2 |  | inactive |
| O=C(Nc1ccccc1Br)N1CCC(CN2CCCC2)CC1 | inactive: 2.56% |  |
| Cc1ccc(OCC(=O)Nc2ccc(-c3nc4ccccc4o3)cc2)c(C)c1 | inactive: 1.29% |  |
| CCOc1ccc(CNC(=O)Cn2c(=O)c3cccn3c3ccccc32)cc1 | inactive: -21.2% |  |
| CCCN1CCN(CCCNC(=O)c2c(C)nn(-c3ccc(F)cc3)c2-n2cccc2)CC1 |  | inactive |
| O=C(Cc1c(C(=O)O)[nH]c2ccccc12)Nc1cccc(C(F)(F)F)c1 |  | inactive |
| CCOc1ccc(OCC)c(NS(=O)(=O)c2ccc3c(c2)CCN3C(=O)C2CCC2)c1 |  | inactive |
| Cc1c(Cl)ccc2sc(N3CCN(C(=O)CS(=O)(=O)c4ccccc4)CC3)nc12 | inactive: -2.24% |  |
| COc1ccc(-c2cc(C(=O)Nc3cnn(Cc4ccc(F)cc4)c3)no2)cc1OC | inactive: -0.123% |  |
| Cc1cc(F)ccc1NC(=O)c1c(C)oc2c1C1=NCCN1C=N2 | inactive: 5.21% |  |
| CCn1cc2nc(SCc3cccc(C(F)(F)F)c3)n(Cc3ccc(C)cc3)c(=O)c2n1 | inactive: 62.3% |  |
| COc1cc2c(cc1NC(=O)C(C)Oc1ccccc1)oc1ccccc12 (configuration not stated) | inactive: 11.5% |  |
| Cc1cc(C)c2c(N)c(C(=O)Nc3ccccc3C(F)(F)F)sc2n1 |  | inactive |
| COc1ccccc1-n1c(=O)n(C)c2c(C(N)=O)nc(-c3cc(OC)c(OC)c(OC)c3)nc21 | inactive: -5.24% |  |
| CCc1ccccc1NC(=O)CSc1nc2c(c(=O)[nH]1)CN(Cc1ccccc1OC)CC2 | inactive: -5.8% |  |

| Structure (SMILES) | activity change, negative = inhibition | outcome |
| --- | --- | --- |
| CN(C(=O)c1nn(C)c2c1CS(=O)(=O)c1ccccc1-2)c1cccc(Cl)c1 | inactive: 1.39% |  |
| CCCSc1ncc(Cl)c(C(=O)N2CCN(c3ccc(OC)cc3)CC2)n1 |  | inactive |
| Cc1ccc(C)c(Cn2c(=O)n(CCCC(=O)NCc3ccc4c(c3)OCO4)c(=O)c3sccc32)c1 | inactive: -3.65% |  |
| CCC1CN(C(=O)Nc2cc(Cl)ccc2C(=O)OC)c2ccccc2S1 (configuration not stated) | inactive: 3.22% |  |
| COc1ccc(OC)c(NC(=O)COCc2cc(-c3ccc(F)cc3)on2)c1 | inactive: 7.31% |  |
| CCOC(=O)c1sc(N2C(=O)c3oc4ccc(F)cc4c(=O)c3C2c2ccc(O)cc2)nc1C (configuration not stated) | inactive: 2.3% |  |
| CCCOc1ccc(CNC(=O)c2cc3ccccn3n2)cc1 |  | inactive |
| CO[C@H]1C[C@@H]2CC[C@@H](C)[C@@](O)(O2)C(=O)C(=O)N2CCCC[C@@H]2C(=O)O[C@H]([C@H](C)C[C@@H]2CC[C@H](OP(C)(C)=O)[C@H](OC)C2)CC(=O)[C@H](C)C=C(C)[C@@H](O)[C@@H](OC)C(=O)[C@H](C)C[C@H](C)C=CC=CC=C1C | inactive: 12.4% |  |
| CC(C)Oc1ccc(C(=O)N2CCCCC2CCN2CCCCC2)cc1 (configuration not stated) | inactive: -6.33% |  |
| CCC(C)c1ccc(OCC(=O)Nc2ccc(-c3nc4ncccc4o3)cc2)cc1 (configuration not stated) | inactive: -4.15% |  |
| CCOC(=O)c1ccc(NC(=O)c2c(NCc3cccc(OC)c3OC)sc3c2CCC3)cc1 | inactive: -3.02% |  |
| CN(C)c1ccc(CNC(=O)c2ccc3nc(CCc4ccccc4)oc3c2)cc1 |  | inactive |
| CCOC(=O)CSc1nc2cc3c(cc2c(=O)n1CCCCCC(=O)NCc1ccc(OC)cc1)OCO3 | inactive: -6.91% |  |
| Cc1ccc(CNC(=O)c2ccc(CS(=O)(=O)c3ccccc3C)o2)cc1 | inactive: 1.71% |  |
| Cc1ccc(N2C(=O)CSC23C(=O)N(CC(=O)Nc2ccccc2F)c2ccccc23)cc1C (configuration not stated) |  | inactive |
| CCOc1ccc(NC(=O)c2oc3ccccc3c2NC(=O)c2cc3ccccc3o2)cc1 |  | inactive |
| COc1ccccc1NC(=O)Cn1c(=O)n(-c2ccc(C)cc2)c(=O)c2c1cnn2C | inactive: 11.7% |  |
| CCc1cccc(NC(=O)CCNS(=O)(=O)c2ccc3c(c2)CCN3C(C)=O)c1 | inactive: 39.2% |  |
| COc1ccc(N2CCN(CCCNC(=O)c3ccc4nc(N5CCCCC5)sc4c3)CC2)cc1 |  | inactive |
| Cc1ccc(/C=C/c2onc(C)c2S(=O)(=O)N2CCC(C(=O)N(CCC(C)C)Cc3ccco3)CC2)cc1 | inactive: 12.5% |  |
| CC(C)(C)c1ccc(-c2nnc(-c3ccccc3NC(=O)c3ccc(F)cc3F)o2)cc1 | inactive: -38.8% |  |
| O=C(Nc1ccc(Br)cc1)c1cccc(S(=O)(=O)N2CCc3ccccc32)c1 | inactive: -3.76% |  |
| COc1ccc(-n2nc(C(=O)Nc3cccc(Cl)c3)c3c4ccccc4n(C)c3c2=O)cc1Cl | inactive: -2.94% |  |
